In PubChem BioAssay AID504339 (National Center for Advancing Translational Sciences (NCATS), 2011):
Among all 390,000 compounds or so, about 17,000 (4.4%) were called active. Inconclusive results, whose numbers are uncertain, are shown with a selection of clear calls. Calls come from the whole dose curve; as a rule, active = well fitted inhibition curve with a large enough effect; inconclusive = small, poorly fitted or top-dose-only effect; inactive = no such curve, though single readings can be large or run the other way. A potency beside an inconclusive call is a rough fit, not a confirmed value.

Molecular target: Lysine-specific demethylase 4A (Homo sapiens) (UniProt O75164)
Assay: qHTS Assay for Inhibitors of JMJD2A-Tudor Domain; note: nearly all actives have a fitted effect of over 50% in size
Details: AlphaScreen JMJD2A-Tudor / H3K4me3 peptide binding; series mostly up to 114 µM
Potency is the fitted concentration of half-maximal effect; tags give direction and shape of the fitted curve.

UniProt O75164, sequence (O75164 whole entry, looked up, the tested form may be a part): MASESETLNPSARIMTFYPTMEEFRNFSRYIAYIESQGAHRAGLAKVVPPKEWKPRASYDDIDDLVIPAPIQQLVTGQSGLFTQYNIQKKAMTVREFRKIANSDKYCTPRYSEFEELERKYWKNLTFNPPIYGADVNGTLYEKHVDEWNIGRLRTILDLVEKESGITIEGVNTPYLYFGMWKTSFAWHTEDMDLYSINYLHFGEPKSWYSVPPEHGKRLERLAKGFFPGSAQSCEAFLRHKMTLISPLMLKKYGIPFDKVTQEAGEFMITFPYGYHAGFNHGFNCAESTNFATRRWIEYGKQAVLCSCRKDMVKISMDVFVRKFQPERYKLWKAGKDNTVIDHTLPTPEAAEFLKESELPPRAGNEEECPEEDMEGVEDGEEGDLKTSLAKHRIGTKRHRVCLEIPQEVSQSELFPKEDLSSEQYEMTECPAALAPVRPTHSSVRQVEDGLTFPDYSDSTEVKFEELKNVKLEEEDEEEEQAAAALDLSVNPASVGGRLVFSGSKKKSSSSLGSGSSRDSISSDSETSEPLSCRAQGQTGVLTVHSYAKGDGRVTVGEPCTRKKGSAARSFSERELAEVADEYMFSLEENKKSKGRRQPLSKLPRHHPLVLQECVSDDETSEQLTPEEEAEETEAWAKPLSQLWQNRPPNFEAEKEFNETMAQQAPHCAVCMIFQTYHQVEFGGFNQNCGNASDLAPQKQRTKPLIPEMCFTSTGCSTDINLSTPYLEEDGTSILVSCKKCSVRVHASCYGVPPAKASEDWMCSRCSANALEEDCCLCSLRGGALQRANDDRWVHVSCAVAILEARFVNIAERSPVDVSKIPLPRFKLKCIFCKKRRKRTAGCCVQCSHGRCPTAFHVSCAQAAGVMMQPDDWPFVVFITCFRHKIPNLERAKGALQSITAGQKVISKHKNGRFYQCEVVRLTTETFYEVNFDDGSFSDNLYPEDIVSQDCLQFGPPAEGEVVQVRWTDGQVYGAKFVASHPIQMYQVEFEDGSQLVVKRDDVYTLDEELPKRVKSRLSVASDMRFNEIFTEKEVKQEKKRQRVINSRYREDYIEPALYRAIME

| Compound | Potency |
| --- | --- |
| COc1cccc(CSc2nc3ccccc3cc2C=O)c1 | inactive |
| COc1cc(OC)c(NS(=O)(=O)c2ccc3c(c2)CCCN3C(C)=O)cc1Cl | inactive |
| S=C(c1ccc(-c2ccccc2Cl)o1)N1CCOCC1 | active: 39.8 µM |
| Cc1ccc2cc3cc(C(=O)NCc4ccco4)oc3nc2c1 | inconclusive: 50.1 µM [inhibitor, partial curve] |
| O=C(NCCSc1c[nH]c2ccccc12)c1c(F)cccc1F | inactive |
| CCN(CC)P(=O)(Nc1ccc(SC(F)F)cc1)c1ccc(N(C)C)cc1NC(=O)c1ccco1 (configuration not stated) | inconclusive: 25.1 µM [inhibitor, partial curve] |
| Cc1ccc(-c2cc(C(=O)N/N=C/C(Br)=C/c3ccccc3)n[nH]2)o1 | inconclusive: 39.8 µM [inhibitor, partial curve] |
| CCC(Sc1nc2ccccc2o1)C(=O)O (configuration not stated) | inactive |
| Cc1cc(=O)n2[nH]cc(C(=O)O)c2n1 | inconclusive: 79.4 µM [inhibitor, partial curve] |
| O=C(c1cccs1)N1CCN(Cc2ccccn2)CC1 | inconclusive: 3.55 µM [inhibitor, full curve, poor fit] |
| O=C(c1ccc(Cl)cc1)c1oc2ccccc2c1CS(=O)c1ccccc1 (configuration not stated) | inconclusive: 17.8 µM [inhibitor, full curve] |
| COc1ccc(C2C(C(=O)c3ccco3)=C(O)C(=O)N2CCOCCO)cc1OC (configuration not stated) | inconclusive: 39.8 µM [inhibitor, single point] |
| CN(C)c1oc(-c2ccc(Cl)cc2)nc1S(=O)(=O)c1ccccc1 | active: 79.4 µM |
| Cc1c(C(=O)O)sc2nc(CSc3nnc(-c4ccc(F)cc4)n3C)[nH]c(=O)c12 | inconclusive: 35.5 µM [inhibitor, partial curve] |
| S=C(NNc1ccnc2cc(Cl)ccc12)Nc1ccccc1Cl | active: 56.2 µM |
| CCCc1nc(SCc2cc(=O)c3ccc(C)c(C)c3[nH]2)n[nH]1 | inactive |
| Cc1n[nH]c(=S)n1/N=C/c1c(O)ccc2ccccc12 | inconclusive: 5.01 µM [inhibitor, full curve, poor fit] |
| O=S1(=O)c2ccccc2N(Cc2cccc(Cl)c2)c2ccccc21 | inactive |
| COc1ccc(CCNC(=O)c2ccc3c(c2)ncn3-c2ccc(C)cc2C)cc1OC | inconclusive: 56.2 µM [inhibitor, partial curve] |
| Oc1ccc(Nc2nc(-c3ccccc3O)nc3ccccc23)cc1 | inconclusive: 56.2 µM [inhibitor, partial curve] |
| CCOc1ccc(CNC(=O)c2ccccc2NC(=O)C2=CSCCO2)cc1 | active: 31.6 µM |

| Compound | Potency |
| --- | --- |
| O=C(C1=C(O)C(=O)N(CCOCCO)C1c1cccs1)c1cccs1 (configuration not stated) | inconclusive: 89.1 µM [inhibitor, single point] |
| CC(C)(C)OC(=O)N1CCC2(CC1)Oc1ccc(F)cc1C(=O)C21CC(c2cccnc2)=NO1 (configuration not stated) | inconclusive: 56.2 µM [inhibitor, partial curve] |
| COc1ccccc1N1CCN(CC(=O)Nc2ccccc2C(=O)NCCc2ccccc2)CC1 | inactive |
| COC(=O)c1ccc(C23CC4(C2)[C@H](CN(C)[C@@H]4c2ccccc2)C3c2ccccc2)cc1 (some centres not stated) | inconclusive: 22.4 µM [inhibitor, full curve, poor fit] |
| CC(C)(O)C#Cc1ccc(CN2CCN(Cc3ccccc3)C(CCO)C2)s1 (configuration not stated) | inactive |
| CC(C)CC(c1nnnn1Cc1ccccc1)N1CCN(C(=O)c2ccco2)CC1 (configuration not stated) | inconclusive: 50.1 µM [inhibitor, partial curve, poor fit] |
| CCN1C(C(=O)c2ccccc2)=C(OC(=O)c2ccccc2OC)c2ccccc2S1(=O)=O | inconclusive: 44.7 µM [inhibitor, partial curve] |
| Cc1ccc2c(c1C)NC(=O)C21N2CCCC2C(C(=O)c2ccc3ccccc3c2)C12C(=O)Nc1ccccc12 (configuration not stated) | inconclusive: 35.5 µM [inhibitor, partial curve] |
| COc1cccc(/C=C/C(=O)Nc2ccc3nc(N4CCN(C)CC4)cc(C)c3c2)c1OC | inconclusive: 56.2 µM [inhibitor, partial curve] |
| O=C(NCCCCc1ccccc1)c1cc([N+](=O)[O-])cc([N+](=O)[O-])c1 | inconclusive: 50.1 µM [inhibitor, partial curve] |
| S=C(NNc1nc(Nc2ccccc2)nc(N2CCCCC2)n1)NC1CCCCC1 | inconclusive: 35.5 µM [inhibitor, full curve] |
| Cc1ccc(OCC(=O)Nc2cc(NC(=O)COc3ccc(C)c(C)c3)cc(C(=O)O)c2)cc1C | inconclusive: 56.2 µM [inhibitor, partial curve] |
| O=C(C1=C(O)C(=O)N(CCN2CCOCC2)C1c1cccnc1)c1cc2ccccc2o1 (configuration not stated) | inconclusive: 79.4 µM [inhibitor, partial curve] |
| CCc1ccccc1N1CC(c2nc3ccccc3n2CCCCOc2ccccc2)CC1=O (configuration not stated) | inconclusive: 56.2 µM [inhibitor, partial curve] |
| COc1ccc(CNC(=O)CCC(=O)n2ncc3cc(C)ccc32)cc1 | inconclusive: 89.1 µM [inhibitor, single point] |
| Cc1ccc(S(=O)(=O)n2ccc3c2CCCC3=O)cc1 | inconclusive: 14.1 µM [inhibitor, full curve, poor fit] |
| CCOC(=O)Nc1ccc2c(c1)Nc1ccccc1S2 | active: 39.8 µM |
| COc1ccc(Cn2c(C(=O)O)c(CNCc3ccc(C)o3)c3ccc(C)cc32)cc1 | inconclusive: 56.2 µM [inhibitor, partial curve] |
| O=C(c1cc2ccc3cccnc3c2[nH]1)N1CCN(c2ccccc2)CC1 | inconclusive: 50.1 µM [inhibitor, partial curve] |
| CCC(=O)N1CCN(c2ccccc2NC(=O)c2ccc(OC)c(Cl)c2)CC1 | inconclusive: 79.4 µM [inhibitor, partial curve] |
| COc1ccc(C2C(C#N)=C(N)N(c3ccccc3)C3=C2C(=O)CCC3)cc1Cn1cc([N+](=O)[O-])cn1 (configuration not stated) | inconclusive: 79.4 µM [inhibitor, single point] |
